Experiments:
[1] = tested on: adults with T2D and overweight/obesity; details: in vivo
[2] = tested on: adults with T2D and overweight/obesity; assay: Phase 2 26-week placebo-controlled study in T2DM with overweight/obesity: safety; details: 26 weeks

CCCCCCCCCCCCCCCC(=O)N[C@@H](CCC(=O)NCCCC[C@H](NC(=O)[C@H](CO)NC(=O)[C@@H]1CCCN1C(=O)[C@@H]1CCCN1C(=O)[C@@H]1CCCN1C(=O)[C@H](C)NC(=O)CNC(=O)[C@H](CO)NC(=O)[C@H](CO)NC(=O)[C@@H]1CCCN1C(=O)CNC(=O)CNC(=O)[C@H](C)NC(=O)[C@H](CC(C)C)NC(=O)[C@H](CC(C)C)NC(=O)[C@H](Cc1c[nH]c2ccccc12)NC(=O)[C@H](CC(N)=O)NC(=O)[C@@H](NC(=O)[C@H](Cc1ccccc1)NC(=O)[C@H](CCC(=O)O)NC(=O)C(C)(C)NC(=O)[C@H](C)NC(=O)[C@H](C)NC(=O)[C@H](CCC(N)=O)NC(=O)[C@H](CCCCN)NC(=O)[C@H](CC(=O)O)NC(=O)[C@H](CC(C)C)NC(=O)[C@H](Cc1ccc(O)cc1)NC(=O)[C@@H](NC(=O)[C@H](CO)NC(=O)[C@H](Cc1ccc(O)cc1)NC(=O)[C@H](CC(=O)O)NC(=O)[C@H](CO)NC(=O)[C@@H](NC(=O)[C@H](Cc1ccccc1)NC(=O)[C@@H](NC(=O)CNC(=O)[C@H](CCC(=O)O)NC(=O)CSCC(=O)NCCN1CCCCC1=O)[C@@H](C)O)[C@@H](C)O)[C@@H](C)CC)C(C)C)C(N)=O)C(=O)O [CT-868]
constipation [1]: 8-20% | diarrhea [1]: 37-44% | gastrointestinal (GI)-related AEs [1]: 60% | hypoglycemia (in words) [1]: No clinically significant hypoglycemia was reported | mean heart rate increase [1]: 1.7±8.8 to 2.3±8.7 | nausea [1]: 16-28% | safety and tolerability (in words) [1]: safe and well-tolerated with no treatment-related discontinuations | vomiting [1]: 8-10% | Fatal TEAEs ([2]; CT-868 1.75 mg): 0 n (%) | Fatal TEAEs ([2]; CT-868 3.25 mg): 0 n (%) | Fatal TEAEs ([2]; CT-868 4 mg): 0 n (%)
